In PubChem BioAssay AID1159614 (National Center for Advancing Translational Sciences (NCATS), 2016):
Out of some 45,000 compounds screened, about 65 (0.1%) were called active. The call rests on the fitted dose curve; in most records, active means well fitted activation curve with a large enough effect; inconclusive means small, poorly fitted or top-dose-only effect; inactive means no such curve, though single readings can be large or run the other way. Some of the results follow.

These compounds were tested against Galactocerebrosidase (Homo sapiens) (UniProt P54803) (assay: A Novel Cell-Based Assay to Identify Small Molecules for B -Galactocerebrosidase). Settings: 145M-Twi-hGALC-G270D cells (Twitcher mouse brain line with human GALC G270D), HMU-beta-Gal fluorescence, 48 h; series mostly up to 57.5 µM; activation: at the top concentration.
Outline: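 Mutant human GALC (G270D), stably expressed in a Twitcher mouse brain cell line lacking endogenous GALC, is measured in live-treated cells via 6-hexadecanoylamino-4-methylumbelliferyl-β-galactoside hydrolysis (0.1 mM final, pH 5.2) with fluorescent detection.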
Further: 0% is about no effect; nearly all actives have a fitted effect of over 65% in size.

UniProt P54803, sequence (P54803 whole entry, looked up): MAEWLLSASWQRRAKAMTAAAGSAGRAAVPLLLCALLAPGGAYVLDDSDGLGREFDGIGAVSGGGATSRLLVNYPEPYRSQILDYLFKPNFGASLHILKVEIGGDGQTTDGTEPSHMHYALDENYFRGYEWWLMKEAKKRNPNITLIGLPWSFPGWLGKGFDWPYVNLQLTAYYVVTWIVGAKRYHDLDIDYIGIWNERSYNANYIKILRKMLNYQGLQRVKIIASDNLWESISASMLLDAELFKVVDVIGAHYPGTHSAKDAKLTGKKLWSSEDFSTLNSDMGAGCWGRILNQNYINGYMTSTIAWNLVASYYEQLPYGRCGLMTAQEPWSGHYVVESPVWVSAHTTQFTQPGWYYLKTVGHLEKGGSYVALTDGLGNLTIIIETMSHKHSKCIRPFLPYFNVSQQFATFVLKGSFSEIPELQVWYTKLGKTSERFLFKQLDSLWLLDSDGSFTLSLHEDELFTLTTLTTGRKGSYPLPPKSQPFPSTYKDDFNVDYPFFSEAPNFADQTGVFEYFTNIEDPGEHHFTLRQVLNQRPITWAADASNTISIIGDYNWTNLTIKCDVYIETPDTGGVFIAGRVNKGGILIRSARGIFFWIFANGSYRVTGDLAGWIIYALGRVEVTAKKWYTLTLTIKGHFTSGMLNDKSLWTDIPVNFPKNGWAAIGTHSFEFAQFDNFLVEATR

activation, inactive:
CCOc1ccc(-c2cccc(NS(=O)(=O)c3c(C)cc(C)cc3C)c2)nn1 -12.6%
COc1ccccc1CCNC(=O)C(=O)NCC(c1ccc2c(c1)OCO2)N1CCOCC1 (stereo unspecified) -16.3%
CC(=O)c1cccc(NC(=O)c2sc(-n3nc(C)c(Cc4ccc5c(c4)OCO5)c3C)nc2C)c1 19.1%
Cc1ccc2oc3c(c(=O)c2c1)C(c1ccc(F)cc1)N(Cc1ccc2c(c1)OCO2)C3=O (stereo unspecified) -18.4%
COc1cccc(CNC(=O)C(=O)Nc2c3c(nn2-c2ccccc2)CSC3)c1 -5.5%
CCN(C(=O)C1CCN(S(=O)(=O)c2ccc3c(c2)CCCN3C(C)=O)CC1)c1cccc(C)c1 -15%
COc1ccccc1OCC(=O)NCC(c1ccc(Cl)cc1)N1CCCCC1 (stereo unspecified) -11.6%
CCOc1cc(C(=O)NCCc2csc3nc(-c4ccc(C)cc4)nn23)cc(OCC)c1OCC -22.2%
COC(=O)c1ccccc1NC(=O)CSc1nc2ccsc2c(=O)n1CCC(C)C -11.2%
COc1ccc(OC)c(-c2nnc3n(Cc4ccc(C)cc4)c(=O)c4ccccc4n23)c1 -8.42%
Cc1c(-c2ccc(Br)cc2)c(=O)oc2ccc(OC(=O)N3CCOCC3)cc12 -2.11%
CCN(CC)C(=O)CSc1nc(-c2ccccc2F)nc2c1Cc1c(CO)cnc(C)c1O2 -10.8%
CC(C)(C)OC(=O)N1CCC(c2c(C(=O)N3CCCCC3)cnn2-c2ccc(Cl)cc2)CC1 -12.9%
Cc1cccc(Cn2c(CNS(=O)(=O)c3ccc4c(c3)CCCC4)nc3cccnc32)c1 -5.58%
C[C@@H]1C[C@H]2[C@@H]3C[C@H](F)C4=CC(=O)C=C[C@]4(C)[C@@]3(F)[C@@H](O)C[C@]2(C)[C@@]1(O)C(=O)CO -10.9%
Cc1c(Cl)cccc1-c1ccc(C(=O)Nc2ccc(F)cc2)o1 -8.11%
COc1ccc(Cc2nc3ccccc3[nH]c2=O)cc1 1.69%
C=Cc1ccc(Cn2c(C)c(CNCc3cccc(Br)c3)c(C(=O)O)c2C)cc1 -10.4%
COc1ccc(F)cc1S(=O)(=O)NCCc1csc2nc(-c3cccc(C)c3)nn12 -17.2%
CCOC(=O)c1c(S(=O)(=O)N2CCCC(C(=O)NCc3ccc(Cl)cc3)C2)c(C)n(C)c1C (stereo unspecified) -15.2%
COC(=O)c1ccc(OCC2c3cc(OC)c(OC)cc3CCN2C(=O)COc2ccc(Cl)cc2)cc1 (stereo unspecified) -23%
O=C(c1ccccc1Cl)N1c2ncnn2C2(CCCCC2)[C@@H]2CCCC[C@@H]21 -1.45%
CCOC(=O)C1CCCN(C(=O)c2nn(-c3ccc(OC)cc3)c(=O)c3c2c2ccccc2n3C)C1 (stereo unspecified) -9.94%
Nc1nc(Nc2ccccc2F)sc1C(=O)c1ccc(Cl)cc1 -15.9%
CCc1cccc(NC(=O)C2CCN(C(=O)c3cnn(-c4ccccc4)c3-n3cccc3)CC2)c1 -3.68%
CCOC(=O)c1noc2ncn(CC(=O)Nc3ccc(C)c(F)c3)c(=O)c12 -5.2%
Cc1cccc(NC(=O)CCS(=O)(=O)c2ccc3c(c2)n(C)c(=O)c(=O)n3C)c1C 1.58%
Cc1c(C(=O)N(Cc2ccccc2F)C2CCS(=O)(=O)C2)oc2ccc(F)cc12 (stereo unspecified) -17%
Cc1ccc(-n2c(=O)c3c(C)c(C(=O)N(C)C)sc3n(CC(=O)C(C)(C)C)c2=O)cc1C -14.1%
O=c1cc(-c2ccccc2)n2c(SCc3ccccc3)nnc2[nH]1 -13.9%
CCc1ccc(-n2nc(C)c3c(C)cc(=O)n(CC(=O)N4CCCc5ccccc54)c32)cc1 -9.88%
Cc1cc2c(cc1CC(=O)c1sccc1S(=O)(=O)Nc1onc(C)c1Cl)OCO2 -16.3%
CN(c1ncnc2onc(-c3cccc(Cl)c3)c12)C1CCCCC1 -6.68%
CCc1ccc(-n2nc3cc(C)c(NC(=O)c4cccc5ccccc45)cc3n2)cc1 -10.7%
O=C(O)Cc1ccc(-c2ccccc2)cc1 -12.3%
COc1ccc(N2CC(NC(=O)COc3ccccc3)CC2=O)cc1OC (stereo unspecified) -0.929%
Cn1c(=O)c2c(SCC(=O)NCc3ccco3)nc(-c3ccccc3)nc2n(C)c1=O -15.6%
CCOC(=O)c1cnc2ccc(OC)cc2c1NCCc1ccccc1 -29.9%
Cn1c(=O)c2c(nc(NCc3ccccc3)n2Cc2ccccc2)n(C)c1=O -0.224%
CC1CCn2c(nc3cc(C(=O)NCCc4ccc(Cl)cc4)ccc32)C1 (stereo unspecified) -7.77%
Cc1ccc(-n2nc(CO)c(C(=O)NCc3ccccn3)n2)cc1C -4.61%
CC(C)c1cccc(C(C)C)c1NC1=NS(=O)(=O)c2ccccc21 -10.7%
COc1ccccc1NC(=O)NCCN1CCN(c2cccc(Cl)c2)CC1 -15.8%
O=C(Cc1ccccc1)Nc1cccc(-c2cn3cccnc3n2)c1 -5.61%
Cc1ccc(NC(=O)C2CCN(c3nc4ccccc4[nH]3)CC2)c(C)c1 5.69%
COC(=O)c1cnc(N2CCN(c3ccccc3F)CC2)c2ccccc12 25.9%
COc1ccc(OC)c(NC(=O)c2c(NCc3cccs3)sc3c2CCCC3)c1 -18.9%
Cc1ccc(Cn2c(=O)n(CCCC(=O)NCc3ccccc3Cl)c(=O)c3ccccc32)cc1 16.6%
Cc1cccc(N2CCN(C(=O)CCc3c(C)nc4ncnn4c3C)CC2)c1C -13.5%
CCc1ccccc1NC(=O)c1cc(S(=O)(=O)N2CCCC2)cn1C -8.3%
COCCN1C(=O)c2[nH]nc(-c3cc(C)ccc3O)c2C1c1ccc(C(C)C)cc1 (stereo unspecified) -20.3%
CCOc1ccccc1NC(=O)c1cc2c(=O)oc3ccccc3c2s1 -12.3%
Cc1cncn1CCc1nc2c3ccccc3nc(SCC(=O)Nc3cccc(Cl)c3)n2n1 -17.3%
O=C(c1ccc(CSc2nc3ccncc3n2Cc2cccc(F)c2)cc1)N1CCCCCC1 -3.36%
CN(CC(=O)Nc1cccc(C(F)(F)F)c1)S(=O)(=O)c1cccs1 -1.44%
COc1ccc(OC)c(NC(=O)CN2C(=O)COc3ccc(S(=O)(=O)NC4CCCC4)cc32)c1 0.843%
Cc1ccc(CNS(=O)(=O)c2cc3c(cc2C)NC(=O)CO3)cc1 -8.8%
Cc1cccc(C)c1-n1ncc(C(=O)N2CCN(c3ccccc3)CC2)c1C1CCN(C(=O)OC(C)(C)C)CC1 13.1%
COC(=O)C(C)Sc1ncnc2c1c(-c1ccccc1)cn2-c1ccc(F)cc1 (stereo unspecified) -5.65%
CCOc1ccc(S(=O)(=O)Nc2ccc3c(c2)N(C(C)=O)CCC3)cc1 -8.04%
O=C(Cn1c(-c2cccs2)cc2ccccc21)NCCc1ccc(Cl)cc1 3.18%
COCCCNC(=O)CSc1nc2cc(OC)c(OC)cc2c2nc(-c3ccccc3)nn12 -13.6%
CC1CCCN(C(=O)c2cc3c(Cl)nc4ccccc4c3s2)C1 (stereo unspecified) -11.1%
O=C(c1ccco1)c1cn(CCOc2ccc(F)cc2)c2ccccc12 -18.6%
Cc1ccc(OCc2nc3ccccc3n2CCOc2ccc(Cl)cc2)cc1 -2.58%
CS(=O)(=O)CCC(C(=O)Nc1cccc(C(F)(F)F)c1)N1Cc2ccccc2C1=O (stereo unspecified) -4.38%
CC1CCCCN1c1nnc(NC(=O)Nc2ccccc2F)s1 (stereo unspecified) -2.46%
Cc1ccc(/C=C/c2nc3ccccc3[nH]2)cc1 -13.5%
CC(C)COc1ccc(C(=O)N(Cc2ccc(N(C)C)cc2)Cc2ccco2)cc1 -16.4%
CCc1ccc(NC(=O)CCS(=O)(=O)c2ccc3c(c2)n(C)c(=O)c(=O)n3C)cc1 2.12%
CCC(Cn1nnc2ccccc2c1=O)NC(=O)Nc1ccc(C)c(C)c1 (stereo unspecified) 10.2%
Cc1c(Cn2ccnc2)c2ccccc2n1CCC(=O)O -8.01%
Cc1ccc(-c2nnc(Nc3cccc(O)c3)c3ccccc23)cc1S(=O)(=O)N1CCN(C)CC1 -16.1%
Cc1ccccc1OCC(O)Cn1c(=N)n(CCN2CCCCC2)c2ccccc21 (stereo unspecified) -15.9%
Cc1ccc(-c2nc(SCC(=O)NCc3ccco3)c3c(=O)n(C)c(=O)n(C)c3n2)cc1 -11.8%
Cc1ccc(Nc2nnc(-c3ccc(C)c(S(=O)(=O)NCc4nc5ccccc5[nH]4)c3)c3ccccc23)cc1 -11%
CCc1cccc(CC)c1NC(=O)CN1C(=O)C(=O)c2ccccc21 -16.7%
CC(C)c1ccc(NC(=O)Cn2c(=O)n(CCc3ccccc3)c(=O)c3ccccc32)cc1 3.22%
CCc1nc(-c2cc(S(=O)(=O)N3CCN(c4ccccc4OC)CC3)ccc2OC)no1 -9.59%
CCOC(=O)Cn1c(=O)c2c(nc3n2CCN3c2ccc(CC)cc2)n(C)c1=O -9.48%
COc1cc(Cl)c(C)cc1Nc1ncnc2c1nc1n2CCCC1 -11.7%
COc1cc(NS(=O)(=O)c2ccc3[nH]c4c(c3c2)CCCCCC4)cc(OC)c1 -10.2%
Cc1nc2nc(SCC(=O)NCc3ccccc3Cl)nn2c(C)c1Cc1ccccc1 -7.92%
CCc1ccc(NC(=O)C(CC)n2c(=O)c(C(F)(F)F)nc3ccccc32)cc1 (stereo unspecified) -7.08%
Cc1ccc(NC(=O)CC(C)S(=O)(=O)c2ccc3c(c2)NC(=O)CO3)cc1Cl (stereo unspecified) -9.72%
COc1cccc(NS(=O)(=O)c2ccc(-c3cc(C)no3)s2)c1 -16%
Cc1ccc(Nc2nn3c(=O)c4cc5c(cc4nc3s2)OCO5)cc1Cl -16.5%
CCOC(=O)c1cc(-c2ccccc2)n(-c2cccc(C(=O)Nc3ccc(OCC)cc3)c2)c1C -4.87%
COc1ccc(Cl)cc1NC(=O)CN1C(=O)COc2ccc(S(=O)(=O)NC3CCCC3)cc21 -12.1%
Cc1ccc(-c2nnc(Nc3ccc(O)cc3)c3ccccc23)cc1S(=O)(=O)N1CCOCC1 -18.4%
CCCOc1cccc(C(=O)N(Cc2ccc(C)o2)C2CCS(=O)(=O)C2)c1 (stereo unspecified) -15%
CN(C(=O)CSc1cn(CC(=O)N2CCOCC2)c2ccccc12)c1ccccc1 -13.9%
CCCCN(CC)CCNC(=O)Cn1cc2c(n1)-c1c(oc(C(=O)N3CCCC3)c1C)CC2 -10.6%
COc1cccc(Cn2c(=O)n(Cc3ccco3)c(=O)c3oc4ccccc4c32)c1 19.3%
CC(=O)N1CCCc2cc(S(=O)(=O)N3CCC(C(=O)NCc4cccc(C)c4)CC3)ccc21 -13.8%
COC(=O)c1ccccc1NC(=O)c1c(NC(=O)c2ccco2)sc2c1CCC(C(C)(C)C)C2 (stereo unspecified) 21.1%
